The text below walks through data of the supplement of paper PMC11417369.

The other results are listed elsewhere or left out.

The test has as its system PF3D7_0420300 AP2 domain 1 (GST-tagged). The test can be described thus: gcPBM binding intensity (ln(normalized median fluorescence intensity)); higher = stronger DNA binding. An outline of the steps:
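Plasmodium falciparum DNA-binding domains carrying a GST tag were expressed in E. coli and applied for 1 h, at about 25 μg on average, to an Agilent 4 × 180k array. The array held primer-extended double-stranded 36-bp intergenic genomic probes together with negative controls, and binding took place in 1× PBS with 1% milk, 0.2 mg/ml BSA, 0.5% salmon testes DNA and 0.03% Triton X-100. An Alexa488 anti-GST antibody detected bound protein, and the array was scanned at 488 nm. Binding intensity is taken as the highest Masliner-normalised natural-log median intensity across replicate spots of either probe orientation.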
Take “TTTATGGATGTGTATGCATGCCTAAATAAATATATG [TGCATGCA_site916]”: the “gcPBM binding intensity (ln)” value worked out at 9.1. As to “TAAATAATGTAAAAAACATCATCAAAATGTTAATTA [CACACA_negctrl_site1768]”, the “gcPBM binding intensity (ln)” value was 9.09. With “ACGACATATGGATGATGTACTATCTTTATTATACAT [XGTACX_site6857]”, the “gcPBM binding intensity (ln)” value is 9.33. For “CAATATAAAATAAAATGTACTTGTAGTAAAGGGATA [XGTACX_site1452]” the value was 9.49; for “ATAAAGGTTTTCCAAGCATGCCACATAGTGACATAC [TGCATGCA_site193]”, 9.05; for “AGATAGATACATACACGTACATATATATATACACAT [XGTACX_site4755]”, 9.53. “AAGGTTATATAAAAAAGTACGCATAAGATGTTGTTC [XGTACX_site807]”: the “gcPBM binding intensity (ln)” value was 9.45. For “TACTGTATTATAATTATGATTGACGAAATTAAAAAT [GTGCAC_negctrl_site358]” the value was 9.06; for “ATTAGAAAAAAGATAGCACACACGGCCCAATATATA [CACACA_site2417]”, 9.79. On to “TGAAATTTATAATAGTGTACAAAGAAAAAAAAAAAA [XGTACX_site4965]”, for which the “gcPBM binding intensity (ln)” value amounted to 9.21. As to “AGCTCTATATTTTACACATGCGATTTGGATATATAT [TGCATGCA_site105]”, the “gcPBM binding intensity (ln)” value was found to be 9.37. With “TAAATATATATCATCACACACACATACATAAATATA [CACACA_site183]” the figure was 9.91.

Take “CCTTTATATTATAAAAGTACATAATATTTTATAAGT [XGTACX_site1629]”: the “gcPBM binding intensity (ln)” value amounted to 8.96.

In the case of “ATATTACAACGTAACGAATATTTCATAAATTCTTAA [CACACA_negctrl_site770]”, the “gcPBM binding intensity (ln)” value is 9.06.

Regarding “ATTTCTCAATCGTAATGTACAAAAAAAAGGAAAAAA [XGTACX_site1193]”, the “gcPBM binding intensity (ln)” value was determined as 9.08. With “TTATATAGATGGAATAGTACAGTATATATATATATA [XGTACX_site8755]”, the “gcPBM binding intensity (ln)” value was found to be 9.41. With “GGTATAAAGAAATTTTGTACATATTTCTCCCTTTAA [XGTACX_site1874]” the figure was 9.09; with “CGCATACACGGACACACACACACATATATATATATA [CACACA_site4520]”, 10.1. For “TAATATATAAGAAACAAAAAAAAATAAAAATATATA [TGCATGCA_negctrl_site153]” the value was 9.54. With “TAAAATAATTCGTAACGTACATATGTAATATAATAT [XGTACX_site6126]” the figure was 9.39. Take “AAAAAAAAAAAACACACACACACACTAATATATAAA [CACACA_site8302]”: the “gcPBM binding intensity (ln)” value turned out to be 10.2. For “TTTTTTTTGTATTTTTCACACACTCTCTATCTCTCT [CACACA_site8655]”, the “gcPBM binding intensity (ln)” value amounted to 9.55. Consider TGAAAATAATTATAGGTGCATAAACATACGGATCTT, for which the “gcPBM binding intensity (ln)” value was 9.55. As to “TATAAAAATAATATTACACACATGTAAAATGCCCGT [CACACA_site7522]”, the “gcPBM binding intensity (ln)” value came to 9.56.

Turning to “ATATATTAATAATAAATTAAAAGGAGTAACATTTTC [CACACA_negctrl_site320]”, the “gcPBM binding intensity (ln)” value was found to be 9.22. With “ATATTTTATTTTCCATGTACACAAAAAAAAAAAAAA [XGTACX_site8327]” the figure was 8.7; with “TTTTTTTTTTTCTTTGCACACAGATAACTTGAAATT [CACACA_site2184]”, 9.3.

In the case of “AATTTAATTATGGTAACACACAATAAAAAAAAATCT [CACACA_site568]”, the “gcPBM binding intensity (ln)” value turned out to be 9.56. Regarding “AGGTTAAAAATAAATACACACATTTTATGGGTGTAT [CACACA_site4702]”, the “gcPBM binding intensity (ln)” value was determined as 9.48. Consider “AAGAAAATAAAGGATATGAAAAATAAAAAAAAGGAG [TGCATGCA_negctrl_site265]”, for which the “gcPBM binding intensity (ln)” value amounted to 9.83. For “ATATTATTAATATATTGTACTTTTTTTTTTTTATTT [XGTACX_site496]” the value was 9.48; for “ATATGTATTTAATTCACACAAAAATATGTTCATGAA [CACACA_site5223]”, 9.09. For “CACATTATGTATCATACACACAAATAAATATATAAT [CACACA_site4505]” the value was 9.7; for “TTTTTTTTTTGCACGTGTACATAAAAATATATATAT [XGTACX_site3116]”, 9.11. As to “AAAATATATTCAACTTGTACATATATATATATATAT [XGTACX_site7629]”, the “gcPBM binding intensity (ln)” value is 9.13. With “TTTTTGTAATGACACACACACAAACAGAAAAAATAA [CACACA_site7062]” the figure was 9.9; with “TTATATATTTTGATTGCACACAGAATTTAAATCATG [CACACA_site8735]”, 9.3; with “ATATTTAAGATTTAATCACACACATATATATTATAT [CACACA_site8946]”, 9.5. For “ATAAAATAAAGGAAAAATATTAAGTTTTAAGAAAAT [CACACA_negctrl_site1066]” the value was 9.14. Regarding “ATATATGTGCTAAAATGTACATAGTATAATATATTT [XGTACX_site1949]”, the “gcPBM binding intensity (ln)” value is 9.36. For “TTTAATCATTTTAGCTTACACACAAAATTTTGTTAT [CACACA_site2938]” the value was 9.74; for “TTCTCACTTTTAAATTTTATTCAAAAATAAGGAAAG [XGTACX_negctrl_site444]”, 8.55; for “ATATATATATATAAATGTACATATGTATAATTCATA [XGTACX_site6679]”, 9.28.

For “ATTTCGTTCTTTTATGCACACTCAACATATAAATTA [CACACA_site8322]”, the “gcPBM binding intensity (ln)” value came out at 9.75.
